Laboratory results published in PubChem BioAssay AID588579 (National Center for Advancing Translational Sciences (NCATS), 2011).
Where “and” joins values, the source holds several entries; their conditions need not be identical. Equal entries are not always repeated. Screen size: about 400,000 compounds; about 2,200 (0.55%) were called active. Inconclusive results (about 1%) are left out. The call rests on the fitted dose curve; in most records, active means well fitted inhibition curve with a large enough effect; inconclusive means small, poorly fitted or top-dose-only effect, or another doubt; inactive means no such curve, though single readings can be large or run the other way. The entries are a selection whose mix differs from that of the whole data set. Some compounds were tested as several samples or in several runs, with calls that do not always agree.

Molecular target: DNA polymerase kappa (Homo sapiens) (UniProt Q9UBT6)
Chain of UniProt Q9UBT6 (Q9UBT6 whole entry, looked up): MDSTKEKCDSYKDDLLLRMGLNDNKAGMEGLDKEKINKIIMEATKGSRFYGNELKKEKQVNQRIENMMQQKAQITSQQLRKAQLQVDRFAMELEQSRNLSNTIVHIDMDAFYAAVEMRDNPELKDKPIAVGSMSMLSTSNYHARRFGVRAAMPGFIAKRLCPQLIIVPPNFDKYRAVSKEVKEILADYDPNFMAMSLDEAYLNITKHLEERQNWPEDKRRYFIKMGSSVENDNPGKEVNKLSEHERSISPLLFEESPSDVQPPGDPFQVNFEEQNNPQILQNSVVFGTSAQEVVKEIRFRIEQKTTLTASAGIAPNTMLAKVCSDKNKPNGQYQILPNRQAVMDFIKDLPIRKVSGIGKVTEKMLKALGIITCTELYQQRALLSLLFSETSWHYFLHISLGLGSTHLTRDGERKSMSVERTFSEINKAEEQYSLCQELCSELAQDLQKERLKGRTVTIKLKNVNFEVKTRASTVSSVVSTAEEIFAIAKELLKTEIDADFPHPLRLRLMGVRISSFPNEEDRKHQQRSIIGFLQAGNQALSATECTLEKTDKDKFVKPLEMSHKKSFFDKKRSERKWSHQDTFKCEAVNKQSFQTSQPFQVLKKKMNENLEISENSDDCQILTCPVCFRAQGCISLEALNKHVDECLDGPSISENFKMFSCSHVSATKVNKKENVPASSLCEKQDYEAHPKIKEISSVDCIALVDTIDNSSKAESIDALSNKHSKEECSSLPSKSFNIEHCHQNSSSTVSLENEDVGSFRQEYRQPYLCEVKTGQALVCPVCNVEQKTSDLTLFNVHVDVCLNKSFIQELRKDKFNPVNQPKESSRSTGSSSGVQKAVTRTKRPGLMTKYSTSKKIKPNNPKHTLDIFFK
Assay: qHTS for Inhibitors of Polymerase Kappa
Details: purified Pol kappa, fluorescent DNA synthesis assay, 10 min; series mostly up to 107 µM; activity, negative = inhibition: at the top concentration
Method in brief: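 Kinetic fluorescence screen: compound preincubated 15 min RT with 10 nM enzyme; 50 nM substrate (final) initiates; reads at 0/10 min.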
On the % scale 0 is the no-effect control and ±100 the full control effect; potency means the concentration at half of the fitted maximal effect.

Molecule | activity, negative = inhibition | Potency
CCCCNC(=O)c1ccccc1NC(=O)CN(c1ccccc1)S(=O)(=O)N(C)C | inactive: -3.59% | 
O=C1Nc2ccc(I)cc2/C1=C/c1cc(Br)c(O)c(Br)c1 | inactive: -11.3% [at 19.4 µM] and inactive: 1.7% [at 19.4 µM] | 
O=C(O)CCCC[C@@H]1CCSS1 |  | inactive
CCN(CC)c1ccc(/C=C(\C#N)C(=O)c2ccc(Br)cc2)cc1 |  | active: 22.4 µM
NC(=O)N1c2ccccc2CC(=O)c2ccccc21 | inactive: -11.3% | 
COc1ccc(S(=O)(=O)N2CCN(CC(=O)c3ccc(O)c(O)c3)CC2)cc1 |  | active: 31.6 µM
COc1ccc(C2=Nn3c(nnc3-c3ccccc3Cl)SC2)cc1OCC1CC1 |  | active: 39.8 µM
Cc1ccc(C)c(S(=O)(=O)N2CCN(C(=O)/C=C/c3ccco3)CC2)c1 |  | active: 50.1 µM
OC[C@@H]1OC(O)[C@@H](O)[C@H](O)[C@@H]1O (some centres undefined) | inactive: 5.33% [at 60.1 µM] | 
COc1cc2c(c(OC)c1OC)C(c1ccc(C)cc1)CC(=O)O2 (centres undefined) | inactive: 11.4% | 
O=c1[nH]c2cc(Cl)c(Cl)cc2[nH]c1=O |  | inactive
O=C1c2ccccc2-c2onc3ccc(NCCCn4ccnc4)c1c23 |  | active: 20 µM
CCC(C)[C@@H](N)C(=O)O (some centres undefined) |  | inactive
C[C@H](O)C(N)C(=O)O (some centres undefined) |  | inactive
C=C1CCN([C@H](C(=O)O)C(C)C)S(=O)(=O)c2ccccc21 | inactive: -10.1% | 
C[C@]12CC[C@H]3c4ccc(O)cc4CC[C@@H]3[C@H]1CC[C@@H]2OC(=O)CCC1CCCC1 | inactive: -12.9% [at 60.1 µM] | 
N=C(CC(O)COc1ccccc1-c1ccccc1)N1CCCCC1 (centres undefined) | inactive: 1.96% [at 19.4 µM] | 
N#Cc1c(NC(=O)COC(=O)c2ccc(O)cc2O)sc2c1CCC2 |  | active: 79.4 µM
O=c1[nH]c2cc(Cl)ccc2c(O)c1-c1cccc(Oc2ccccc2)c1 |  | inactive
C=CCN1CCc2c(cc(O)c(O)c2Cl)C(c2ccccc2)C1 (centres undefined) |  | inactive
CC1=C(C(=O)O)N2C(=O)[C@@H](NC(=O)C(N)C3=CCC=CC3)[C@H]2SC1 (some centres undefined) | inactive: -3.64% [at 60.1 µM] | 

Molecule | activity, negative = inhibition | Potency
CN(C)CCCNc1c2ccccc2nc2ccccc12 |  | active: 25.1 µM
H-IKVAV-OH | inactive: 15.7% [at 60.1 µM] | 
CN(C[C@H](Cc1ccccc1)N(C[C@@H](CC1CCCCC1)N(CCc1ccccc1)N=O)N=O)N=O | inactive: -9.07% | 
COc1ccc(-c2coc3cc(O)ccc3c2=O)c(O)c1O |  | active: 1.78 µM
COC(=O)[C@@H](N)Cc1ccc(O)c(O)c1 |  | inactive
O=C(O)CCN1C(=O)/C(=C\c2ccc(-c3nc4ccccc4s3)o2)SC1=S | inactive: -23.9% | 
COc1ccc(C(CC(=O)N2CCOCC2)c2c(OC)cc(OC)c3ccc(=O)oc23)cc1 (centres undefined) | inactive: -23.2% | 
CSCC[C@H](NC(=O)CNC(=O)CNC(=O)[C@H](CO)NC(=O)[C@H](CCCNC(=N)N)NC(=O)[C@H](CO)NC(=O)[C@H](CC(C)C)NC(=O)[C@H](CC(C)C)NC(=O)CNC(=O)[C@H](C)NC(=O)[C@H](CC(C)C)NC(=O)[C@H](CCCNC(=N)N)NC(=O)[C@H](Cc1cnc[nH]1)NC(=O)[C@@H](NC(=O)[C@@H](N)C(C)C)[C@@H](C)O)C(=O)N[C@H](C(=O)N[C@@H](CCCCN)C(=O)N[C@@H](CO)C(=O)N[C@@H](CC(N)=O)C(=O)N[C@@H](Cc1ccccc1)C(=O)N[C@H](C(=O)N1CCC[C@H]1C(=O)N[C@H](C(=O)N[C@@H](CC(N)=O)C(=O)N[C@H](C(=O)NCC(=O)N[C@@H](CO)C(=O)N[C@@H](CCCCN)C(=O)N[C@@H](C)C(=O)N[C@@H](Cc1ccccc1)C(N)=O)C(C)C)[C@@H](C)O)C(C)C)C(C)C | inactive: 14.8% [at 60.1 µM] | 
O=C(O)CCNc1cc(N2CCN(C(=O)c3ccco3)CC2)c2noc3c2c1C(=O)c1ccccc1-3 |  | active: 12.6 µM
O=C(O)c1cc2cccc([N+](=O)[O-])c2[nH]1 |  | active: 44.7 µM
NCCC(O)(P(=O)(O)O)P(=O)(O)O |  | inactive
Cc1ccc(NC(=O)N2CCN(c3nnc(C)c4c(C)n(-c5ccccc5)nc34)CC2)c(Cl)c1 | inactive: 24.5% | 
COc1ccc([C@@H]2CC(=O)c3c(O)cc(O[C@H]4O[C@@H](CO[C@H]5O[C@@H](C)[C@@H](O)[C@@H](O)[C@@H]5O)[C@@H](O)[C@@H](O)[C@@H]4O)cc3O2)cc1O | inactive: -1.59% [at 19.4 µM] | 
COc1cc(/C=C2\C=Cc3ccccc32)ccc1N(C)C | inactive: 1.16% | 
CCC1CCCCC1 | inactive: 14.5% [at 60.1 µM] | 
COc1ccc2c(c1)c(CC(=O)O)c(C)n2C(=O)c1ccc(Cl)cc1 |  | inactive
Cc1ccc(CNC(=O)CCc2c(C)nn(-c3ccc(N4CCCCC4)nn3)c2C)cc1 | inactive: 29.6% | 
CC1(C)CCCN(C(=O)c2coc(=O)c(Br)c2)C1 |  | active: 14.1 µM
O=C1OCCN1C(=O)[C@H]1[C@H](c2ccc(F)cc2)C(c2ccc(F)cc2)=NN1c1ccccc1 | inactive: -9.86% | 
CC(=O)C[C@@H](O)CC(=O)[C@@H]1OC(=O)CCCCCc2ccccc21 | inactive: -1.83% | 
O=C(O)c1cc(N=Nc2ccc(-c3ccc(N=Nc4ccc(O)c(C(=O)O)c4)cc3)cc2)ccc1O |  | active: 5.97 µM

Molecule | activity, negative = inhibition | Potency
Cc1cccc(C2=NN(c3ccccc3)[C@H](CO)[C@H]2c2ccc(Cl)cc2)c1 | inactive: -0.759% | 
O=C(CCc1ccc(O)cc1)c1c(O)cc(O)cc1O |  | inactive
CSCC[C@H](NC(=O)[C@H](CC(C)C)NC(=O)CNC(=O)[C@H](Cc1ccc(O)cc1)NC(=O)[C@H](Cc1ccccc1)NC(=O)[C@H](CCC(N)=O)NC(=O)[C@H](CCC(N)=O)NC(=O)[C@@H]1CCCN1C(=O)[C@H](CCCCN)NC(=O)[C@@H]1CCCN1C(=O)[C@@H](N)CCCN=C(N)N)C(N)=O | inactive: 12.7% [at 60.1 µM] | 
O=C(Nc1ccc2nc(-c3ccco3)c(-c3ccco3)nc2c1)N1CCN(c2ccccn2)CC1 |  | active: 28.2 µM
CNC[C@H](O)c1ccc(O)c(O)c1 |  | active: 2 µM and active: 2.67 µM and active: 7.08 µM
CN1CCN(CCCN2c3ccccc3Sc3ccc(C(F)(F)F)cc32)CC1 |  | inactive
CCCCCCCCCCCCCCC[C@H](O)[C@H](N)CO | inactive: -3.46% | 
CCOc1ccccc1NC(=O)CCn1nc(C)c(S(=O)(=O)N2CCCCC2)c1C | inactive: 0% | 
C[C@@H]1C(c2cccc(Cl)c2)=NN(c2ccccc2)[C@H]1C(=O)N1CCOC1=O | inactive: 4.3% | 
CCCCC(=O)OC1CCC2C3CCc4cc(O)ccc4C3CCC12C (centres undefined) | inactive: -7.71% | 
Oc1ccc(/C=C/c2cc(O)cc(O)c2)cc1 |  | inactive
O=C(O)c1cccc(N2C(=O)/C(=C/c3ccc(SCc4ccc(Cl)cc4)o3)SC2=S)c1 |  | active: 79.4 µM
COc1ccc(-c2nnc(SCc3cccc(Cl)c3)o2)cc1 | inactive: 24% | 
COc1ccc2[nH]c(=O)c(CN(Cc3nnnn3Cc3ccco3)C3CCCCC3)cc2c1 |  | active: 35.5 µM
COC(=O)[C@@H]1[C@@H]2C[C@H]3c4[nH]c5ccccc5c4CCN3C[C@@H]2CC[C@@H]1O |  | inactive
O=C(O)C(S)[C@@H](S)C(=O)O (some centres undefined) |  | active: 22.4 µM
CCCc1c(-c2ccc(O)cc2)nn(-c2ccc(O)cc2)c1-c1ccc(O)cc1 |  | inactive
OCCOCCN1CCN(Cc2cccc(Oc3ccccc3)c2)CC1 | inactive: 13.9% [at 60.1 µM] | 
O=c1c(-c2ccc(O)cc2)coc2cc(OC3OC(CO)C(O)C(O)C3O)ccc12 (centres undefined) | inactive: 3.82% | 
COc1cc(OC)c2c(O)c3c(c(-c4c5c(c(O)c6c(OC)cc(OC)cc46)CO[C@@H](C)[C@H]5O)c2c1)[C@H](O)[C@H](C)OC3 |  | active: 39.8 µM
O=C(COC(=O)C1CC(=O)N(Cc2ccco2)C1)c1ccc(OC(=O)c2ccco2)cc1 (centres undefined) |  | active: 31.6 µM

Molecule | activity, negative = inhibition | Potency
O=C(O)c1cc(C(=O)O)cc(N2C(=O)CSC2=S)c1 |  | active: 89.1 µM
Cc1cccc(C2=NN(c3ccccc3)[C@@H](C(=O)N3CCOC3=O)[C@@H]2C)c1 | inactive: -8.86% | 
CCOC(=O)C1Nc2ccc(C(=O)O)cc2C2C=CCC12 (centres undefined) |  | active: 10 µM
O=C(O)CSc1c2ccccc2cc2ccccc12 | inactive: -10.6% | 
Cc1nc2ccc(-c3nc4ccc(N)cc4[nH]3)cc2[nH]1 |  | active: 50.1 µM
CC1CCN(C(=O)Nc2ccc3nc(-c4ccco4)c(-c4ccco4)nc3c2)CC1 |  | active: 8.91 µM
CCOC(=O)c1cc2c(=O)n3ccccc3nc2n(Cc2ccco2)c1=NC(=O)c1ccc(OC)cc1 | inactive: -0.542% | 
CCCCC1=C(C(=O)OCC)C(C(=O)OCC)Oc2ccccc21 (centres undefined) | inactive: 4.62% | 
CC(C)CN1CCC(=O)N(CCSc2ccccc2)CC1 | inactive: -13.4% | 
C[C@@](N)(Cc1ccc(O)c(O)c1)C(=O)O | inactive: -13.8% [at 12 µM] | 
Cc1ccccc1/C=C\c1nc2ccccc2c(=O)[nH]1 | inactive: -3.77% | 
COc1[nH]c(/N=C/c2ccccc2)c(C#N)c1C#N | inactive: -12% | 
CN1CCN(C2Cc3ccccc3Sc3ccc(Cl)cc32)CC1 (centres undefined) |  | inactive
O=C(O)c1cccc(Cn2c(Cl)c(/C=N/NC(=O)c3cc4ccccc4cc3O)sc2=O)c1 |  | active: 31.6 µM
CCC(c1ccc(O)c(O)c1)C(CC)c1ccc(O)c(O)c1 (centres undefined) |  | active: 50.1 µM
COc1ccccc1C1CC(=O)Oc2c(C(C)C)ccc(C)c21 (centres undefined) | inactive: -13.2% | 
C[C@@H](C(=O)O)c1cccc(C(=O)c2ccccc2)c1 | inactive: -7.07% [at 12 µM] | 
C=CC1=C(C(=O)O)N2C(=O)[C@@H](NC(=O)/C(=N\OCC(=O)O)c3csc(N)n3)[C@@H]2SC1 | inactive: -11.7% [at 19.4 µM] | 
CCOC(=O)N(O)c1ccc(C=Cc2ccccc2)cc1 |  | active: 79.4 µM
Cc1nnc(SCC2=C(C(=O)O)N3C(=O)C(NC(=O)Cn4nc(C(F)F)c(Cl)c4C)C3SC2)s1 (centres undefined) |  | active: 50.1 µM
CSCC[C@H](NC(=O)[C@H](CC(C)C)NC(=O)CNC(=O)[C@H](Cc1ccccc1)NC(=O)[C@H](Cc1ccccc1)NC(=O)[C@H](CCC(N)=O)NC(=O)[C@H](CCC(N)=O)NC(=O)[C@@H]1CCCN1C(=O)[C@H](CCCCN)NC(=O)[C@@H]1CCCN1C(=O)[C@@H](N)CCCN=C(N)N)C(N)=O | inactive: 13.6% [at 60.1 µM] | 
